Results reported in PubChem BioAssay (NCATS).
“And” between values parts separate entries of the source, which are not always exact repeats. Identical values can stand only once. The inconclusive results got no clear call from the source; some entries with a clear call stand among them for comparison. For some of these results: No potency is given beside an inconclusive call; the fits are too rough. For some of these results: A note “side channel” means that the fit belongs to a control or component signal, not to the main read-out. The source made the active and inactive calls. Unless noted, the call rests on the fitted dose curve; in most records, active means well fitted curve in the direction sought with a large enough effect; inconclusive means small, poorly fitted or top-dose-only effect, or another doubt; inactive means no such curve, though single readings can be large; an effect the other way counts as inactive or inconclusive.

Key:
[1] = Cytometry Cell-Based qHTS for Inhibitors of the mTORC1 Signaling Pathway in MEF cells (AID 2668); details: mTORC1 pathway readout; series mostly up to 38.3 µM;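 further: Tsc2-/- p53-/- mouse embryonic fibroblasts stably re-expressing wild-type Tsc2; percent cells positive for phospho-rpS6 Ser235/236 relative to propidium iodide stain; plate controls were DMSO wells for no effect and 7.5 nM rapamycin control wells for full effect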
Procedure, shortened: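 In MEFs grown in DMEM + 10% FBS, a 24 hrs compound exposure preceded imaging of phospho-rpS6 Ser235/236 by laser-scanning cytometry.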

[2] = target: T1, Tyrosine-protein phosphatase non-receptor type substrate 1 (Homo sapiens) + Leukocyte surface antigen CD47 (Homo sapiens) (UniProt P78324+Q08722); assay: CD47-SIRPalpha protein protein interaction - LANCE assay qHTS validation (AID 1347057; active means well fitted curve in the direction sought with a large enough effect in the signal ratio, with a control signal flat, not every such curve was filed as active; inconclusive means small, poorly fitted or top-dose-only effect, or effect the other way, or a change in a side signal; inactive means no such curve, though single readings can be large or run the other way; the % refers to the signal ratio; further: potency means the concentration at half of the fitted maximal effect); details: Recombinant CD47-His / biotin-SIRPalpha, TR-FRET ratio; series mostly up to 38.3 µM
Procedure, shortened: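 First, His-tagged CD47 and Eu-labelled anti-His antibody met the compound for 30 min; next, site-specifically biotinylated SIRPalpha was added for 30 min; finally streptavidin-APC was added before reading the TR-FRET ratio.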

[3] = target: T1, Tyrosine-protein phosphatase non-receptor type substrate 1 (Homo sapiens) + Leukocyte surface antigen CD47 (Homo sapiens); assay: CD47-SIRPalpha protein protein interaction - HTRF assay qHTS validation (AID 1347058; active means well fitted curve in the direction sought with a large enough effect in the signal ratio, not every such curve was filed as active; inconclusive means small, poorly fitted or top-dose-only effect, or effect the other way, or a change in a side signal; inactive means no such curve, though single readings can be large or run the other way; the % refers to the signal ratio; further: 0% is about no effect); details: TR-FRET HTRF CD47-His / biotin-SIRPalpha binding, ratio 665/615; series mostly up to 38.3 µM
Procedure, shortened: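 TR-FRET read (Ch1/Ch2 ratio) of soluble extracellular CD47 and Avi-biotinylated SIRPalpha domains in PBS pH 7.4 with 0.05% IGEPAL; 7-point compound titration. Sequential 30 min room-temperature steps; non-biotinylated SIRPalpha as control inhibitor.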

[4] = target: T1, Tyrosine-protein phosphatase non-receptor type substrate 1 (Homo sapiens) + Leukocyte surface antigen CD47 (Homo sapiens); assay: CD47-SIRPalpha protein protein interaction - Alpha assay qHTS validation (AID 1347059); details: AlphaScreen CD47-His/biotin-SIRPalpha binding, LOPAC; series mostly up to 38.3 µM;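 further: bead proximity luminescence from CD47 binding SIRPalpha after compound preincubation with SIRPalpha; potency means the concentration at half of the fitted maximal effect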
Procedure, shortened: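 Soluble extracellular domains: Avi-tag biotinylated SIRPalpha (25 nM) preincubated 30 min RT with compound, then 6His-CD47 (12.5 nM) 30 min; Ni-NTA acceptor and streptavidin donor beads (10 ug/mL) 30 min, AlphaScreen read. PBS pH 7.4, 0.05% IGEPAL.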

[5] = AP1 Signaling Pathway (AID 357; active means well fitted curve in either direction with a large enough effect, not every such curve was filed as active; inconclusive means small, poorly fitted or top-dose-only effect, or another doubt;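 further: ME-180 reporter cells stimulated with EGF at its EC50 level; top concentration of the series differs between compounds; on the % scale 0 is the no-effect control and ±100 the full control effect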); details: ME-180 (cervical carcinoma) AP-1-bla reporter, EGF-induced, beta-lactamase ratio, 5 h; at 17.2 µM (top of the series)
Procedure, shortened: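 AP-1-bla ME-180 cells, Opti-MEM + 0.5% dialyzed FBS, plated overnight 37 °C. Cpd titration + EC50 EGF, 5 h 37 °C. CCF4 2.5 h RT; ex 405, em 460/530 ratio → %activity, AC50.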

[6] = qHTS to identify inhibitors of the type 1 interferon - major histocompatibility complex class I in skeletal muscle: primary screen against the NCATS LOPAC collection (AID 1347405); details: iHSKM muscle cells, IFN-b-induced MHC-I HiBiT luminescence, 24 h; activity change, negative = inhibition: at 45.9 µM (top of the series);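 further: lytic HiBiT luminescence reporting HLA-B protein level; potency means the concentration at half of the fitted maximal effect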
Procedure, shortened: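 Cells: C25cl48 human myoblasts, HiBiT-tagged HLA-B*08:01, stimulated with IFN-beta 4.0 ng/ml. Compounds are titrated 1:4.3 over 7 points from 46 uM final and incubated 24 hrs; endogenous MHC class I is quantified by HiBiT lytic luminescence.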

[7] = qHTS Assay for Identification of Small Molecule Antagonists for Thrombopoietin (TPO) Signaling Pathway (AID 918); details: TPO-dependent cell signaling reporter, antagonist mode; activity change, negative = inhibition: at 38.5 µM (top of the series); further: nearly all actives have a fitted effect of over 60% in size
Procedure, shortened: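 First, Ba/F3 reporter cells expressing human TPO receptor were held overnight without IL-3. Next, compound and 26 pM TPO were added. After 24 hrs incubation at 37 C, luciferase luminescence under the Glycoprotein IIb promoter was recorded.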

[8] = target: Cytochrome P450 2C9 (Homo sapiens) (UniProt P11712); assay: qHTS Assay for Inhibitors and Substrates of Cytochrome P450 2C9 (AID 883); details: recombinant CYP2C9, luciferin-H luminescence, 60 min; series mostly up to 57.1 µM; further: on the % scale 0 is the no-effect control and ±100 the full control effect; nearly all actives have a fitted effect of over 60% in size
Procedure, shortened: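 CYP2C9 deoxyluciferin hydroxylation, 37C, 60 min with NADPH regeneration; 10nM enzyme, 100uM Luciferin-H (KM). Glo detection reagent stopped reaction; luminescence normalized to sulphaphenazole (57uM) full inhibition.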

[9] = S16 Schwann cell viability assay (CellTiter-Glo assay) (AID 624031); details: S16 rat Schwann cells viability, 24 h; series mostly up to 57.5 µM;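 further: cellular ATP luminescence as a viability measure; nearly all actives have a fitted effect of over 70% in size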; further: potency means the concentration at half of the fitted maximal effect;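 on activity change, negative = cytotoxicity: plate controls were DMSO-treated cells for no effect and cell-free wells for full effect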
Procedure, shortened: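 CellTiter-Glo ATP luminescence counter-screen in untransfected S16 rat Schwann cells, 24h compound exposure at 37 degree Celsius after overnight seeding (500-750 cells/well); response scaled between cell-free wells and DMSO (0% activity), curves classed by r2 and magnitude.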

[10] = test system: Zika virus NS2B-NS3 protease (unlinked complex); assay: Confirmatory screen GU AMC qHTS for Zika virus inhibitors (AID 1347153); details: Recombinant NS2B-NS3 protease, AMC substrate fluorescence; series mostly up to 57.1 µM;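 further: enzyme at 25 nM with substrate at 10 µM below its Km of 18.3 µM; potency means the concentration at half of the fitted maximal effect; nearly all actives have a fitted effect of over 70% in size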
Procedure, shortened: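 Noncovalent NS2B hydrophilic domain/NS3 protease complex (25 nM) in 10 mM Tris-HCl pH 8.0, 0.01% Tween 20 was preincubated 15 min at room temperature with compounds. Then 10 µM AMC substrate (Km 18.3 µM) was added; fluorescence was read over 15 min and fitted to a 4-parameter Hill equation.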

[11] = target: Rap guanine nucleotide exchange factor 3 (Homo sapiens) (UniProt O95398); assay: Confirmatory qHTS for antagonist of cAMP-regulated guanine nucleotide exchange factor 3 (EPAC1) (AID 1645880); details: EPAC1 Rap1B-BODIPY-GDP exchange, fluorescence; series mostly up to 115 µM; further: nearly all actives have a fitted effect of over 55% in size; further: potency means the concentration at half of the fitted maximal effect;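 on activity, negative = inhibition: plate controls were DMSO only for no effect and full effect of the ATA control for full effect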
Procedure, shortened: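 Nucleotide exchange uses 100 nM EPAC1, 250 nM RAP1B-BODIPY-GDP and 50 uM GDP, with compounds in a concentration-titration series. After 5 min at room temperature, fluorescence (480 nm ex/540 nm em) is read every 5 min for 30 min. Data are normalized to control ATA and DMSO.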

[12] = Cell Viability - H-4-II-E (AID 543); details: H-4-II-E rat hepatoma viability; series mostly up to 92.2 µM;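 further: cells exposed to compound for 40 hours; nearly all actives have a fitted effect of over 35% in size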; further: potency means the concentration at half of the fitted maximal effect
Procedure, shortened: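 Here, cytotoxicity is measured in the rat hepatoma line H-4-II-E as loss of intracellular ATP after 40 hr compound treatment, detected by luciferase luminescence.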

[13] = Cell Viability - LYMP2-020 (AID 986); details: series mostly up to 92.2 µM;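 further: cells exposed to compound for 24 h at 37 °C; nearly all actives have a fitted effect of over 55% in size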; further: potency means the concentration at half of the fitted maximal effect
Procedure, shortened: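 Acute cytotoxicity in a human lymphoblastoid line is scored as a concentration-dependent fall in cellular ATP after 24 hr at 37 C in complete medium. The positive control is tetraoctylammonium bromide, and potency is given as Hill-fit AC50.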

[14] = target: Peroxisome proliferator-activated receptor gamma (Homo sapiens) (UniProt P37231); assay: qHTS assay for small molecule antagonists of peroxisome proliferator-activated receptor gamma signaling (AID 588537; active means well fitted inhibition curve with a large enough effect in the signal ratio, with a control signal flat, not every such curve was filed as active; inconclusive means small, poorly fitted or top-dose-only effect, or effect the other way, or a change in a side signal; the % refers to the signal ratio;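 further: reporter cells co-stimulated with 50 nM rosiglitazone agonist during compound treatment; % of control where 0% means no effect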); details: HEK293 PPARg-UAS-bla, beta-lactamase ratio, antagonist mode; activity, negative = inhibition: at 76.8 µM (top of the series)
Procedure, shortened: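 PPAR-gamma-UAS-bla HEK293 cells (3000/well, 1% charcoal/dextran-stripped FBS) were preincubated 6-6.5 h at 37 C, given titrated compounds, then stimulated with 50 nM rosiglitazone for 16 h. Beta-lactamase activity was read with CCF4 dye; IC50 came from Hill fits.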

[15] = target: Thyroid hormone receptor beta (Homo sapiens) (UniProt P10828); assay: qHTS assay for small molecule agonists of thyroid hormone receptor beta signaling (AID 588545; calls by dose curve; further: potency means the concentration at half of the fitted maximal effect); details: TR-UAS-bla GripTite HEK 293, beta-lactamase ratio, agonist mode, 18 h; activation: at 76.7 µM, percent of T3 response, DMSO as zero
Procedure, shortened: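 Agonist-mode beta-lactamase reporter assay, HEK 293 cells, 2% charcoal/dextran FBS; cells plated 4 hrs, compound 18 hrs at 37 C, CCF4 2 hrs RT. Normalized to 10 nM T3 (100%) and DMSO (0%); Hill fit gives EC50, efficacy.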

[16] = qHTS assay to identify small molecules that stimulate interleukin-8 (IL-8) secretion (AID 651758; active means well fitted activation curve with a large enough effect in the signal ratio; inconclusive means small, poorly fitted or top-dose-only effect, or effect the other way, or a change in a side signal; the % refers to the signal ratio; further: potency means the concentration at half of the fitted maximal effect; on activation: 0% is about no effect); details: HTRF ratio (665/615); activation: at 92.2 µM (top of the series)
Procedure, shortened: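 THP-1, 2000 cells/well; cpd 16 h, 37 C; add cryptate + XL665 anti-IL-8 Abs; RT 1-3 h; TR-FRET read.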

[17] = Cell Viability - NIH 3T3 (AID 541); details: NIH 3T3 cell viability, qHTS; activity change, negative = cytotoxicity: at 92.2 µM (top of the series);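 further: cells exposed to compound for 40 hours; nearly all actives have a fitted effect of over 25% in size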; further: potency means the concentration at half of the fitted maximal effect;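 on activity change, negative = cytotoxicity: plate controls were DMSO alone for no effect and tamoxifen positive control for full effect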
Procedure, shortened: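 AC50 values reflect concentration-dependent loss of intracellular ATP in NIH 3T3 cells after 40 hr treatment in complete culture medium, quantified by luciferase-based luminescence.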

[18] = target: Peroxisome proliferator-activated receptor delta (Homo sapiens) (UniProt Q03181); assay: qHTS assay for small molecule antagonists of peroxisome proliferator-activated receptor delta signaling (AID 588535; active means well fitted inhibition curve with a large enough effect in the signal ratio, with a control signal flat, not every such curve was filed as active; inconclusive means small, poorly fitted or top-dose-only effect, or effect the other way, or a change in a side signal; inactive means no such curve, though single readings can be large or run the other way; the % refers to the signal ratio); details: HEK293T PPARd-UAS-bla, beta-lactamase FRET ratio, 18 h; activity change, negative = inhibition: at 76.7 µM (top of the series)
Procedure, shortened: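 GeneBLAzer PPAR-delta-UAS-bla HEK293T cells in medium with 2% charcoal/dextran FBS were preincubated 5 hrs at 37 C, then given compounds, incubated 18 hrs at 37 C, and read by CCF4 beta-lactamase fluorescence; IC50 from Hill fits.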

[19] = target: Retinoic acid receptor RXR-alpha (Homo sapiens) (UniProt P19793); assay: qHTS assay for small molecule antagonists of retinoid X receptor alpha signaling (AID 588546; active means well fitted inhibition curve with a large enough effect in the signal ratio, with a control signal flat, not every such curve was filed as active; inconclusive means small, poorly fitted or top-dose-only effect, or effect the other way, or a change in a side signal; inactive means no such curve, though single readings can be large or run the other way; the % refers to the signal ratio;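 further: cells stimulated with 9-cis-retinoic acid as agonist; on the % scale 0 is the no-effect control and ±100 the full control effect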); details: HEK293T RXRa-UAS-bla, beta-lactamase ratio, antagonist mode
Procedure, shortened: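 Beta-lactamase reporter inhibition, read as CCF4 fluorescence ratio (ex 405, em 460/530 nm) after 2 h at RT. HEK293T UAS-bla cells, 2500/well, were stimulated with 9-cis-RA at 500 or 100 nM final alongside test compound for 18 h at 37 C.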

[20] = target: Protein phosphatase 1D (Homo sapiens) (UniProt O15297); assay: Rhodamine-PBP qHTS Assay for Modulators of WT P53-Induced Phosphatase 1 (WIP1) (AID 1347425); details: recombinant WIP1, Rhodamine-PBP phosphate fluorescence, real-time; series mostly up to 57.5 µM; further: % of control where 0% means no effect
Procedure, shortened: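 Read-out: Rhodamine-PBP fluorescence (ex 525/em 598 nm) for released Pi, read each minute for 11 min after adding 10 uM VEPPL-pS-QETFS; signal taken as f1 minus pre-substrate f0. Enzyme 5 nM WIP1 with 1 hr room-temperature compound preincubation.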
Tags describe the fitted curve by direction and shape.

T1 sequence (P78324 whole entry, looked up): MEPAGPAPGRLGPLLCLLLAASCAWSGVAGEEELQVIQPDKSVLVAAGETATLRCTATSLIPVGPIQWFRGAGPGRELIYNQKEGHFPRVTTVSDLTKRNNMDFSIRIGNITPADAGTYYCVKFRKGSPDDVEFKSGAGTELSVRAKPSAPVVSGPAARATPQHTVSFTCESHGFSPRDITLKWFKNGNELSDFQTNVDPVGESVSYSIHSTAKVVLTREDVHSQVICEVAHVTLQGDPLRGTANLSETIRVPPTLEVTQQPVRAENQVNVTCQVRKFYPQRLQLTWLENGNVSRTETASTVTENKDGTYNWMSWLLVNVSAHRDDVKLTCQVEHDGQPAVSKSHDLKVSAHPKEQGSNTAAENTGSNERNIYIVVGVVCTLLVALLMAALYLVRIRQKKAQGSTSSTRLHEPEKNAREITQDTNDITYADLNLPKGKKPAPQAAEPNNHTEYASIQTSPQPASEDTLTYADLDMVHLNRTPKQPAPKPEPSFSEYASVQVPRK
T1 sequence (Q08722 whole entry, looked up): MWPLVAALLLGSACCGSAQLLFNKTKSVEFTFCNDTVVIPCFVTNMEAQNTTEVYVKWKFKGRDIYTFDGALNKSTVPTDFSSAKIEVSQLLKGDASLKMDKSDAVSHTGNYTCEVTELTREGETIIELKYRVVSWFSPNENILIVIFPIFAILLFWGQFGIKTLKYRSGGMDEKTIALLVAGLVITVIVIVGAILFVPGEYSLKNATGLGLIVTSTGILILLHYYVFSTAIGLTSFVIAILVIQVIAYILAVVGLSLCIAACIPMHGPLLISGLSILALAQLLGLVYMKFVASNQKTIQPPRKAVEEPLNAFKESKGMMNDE
Chain of UniProt O95398 (O95398 whole entry, looked up): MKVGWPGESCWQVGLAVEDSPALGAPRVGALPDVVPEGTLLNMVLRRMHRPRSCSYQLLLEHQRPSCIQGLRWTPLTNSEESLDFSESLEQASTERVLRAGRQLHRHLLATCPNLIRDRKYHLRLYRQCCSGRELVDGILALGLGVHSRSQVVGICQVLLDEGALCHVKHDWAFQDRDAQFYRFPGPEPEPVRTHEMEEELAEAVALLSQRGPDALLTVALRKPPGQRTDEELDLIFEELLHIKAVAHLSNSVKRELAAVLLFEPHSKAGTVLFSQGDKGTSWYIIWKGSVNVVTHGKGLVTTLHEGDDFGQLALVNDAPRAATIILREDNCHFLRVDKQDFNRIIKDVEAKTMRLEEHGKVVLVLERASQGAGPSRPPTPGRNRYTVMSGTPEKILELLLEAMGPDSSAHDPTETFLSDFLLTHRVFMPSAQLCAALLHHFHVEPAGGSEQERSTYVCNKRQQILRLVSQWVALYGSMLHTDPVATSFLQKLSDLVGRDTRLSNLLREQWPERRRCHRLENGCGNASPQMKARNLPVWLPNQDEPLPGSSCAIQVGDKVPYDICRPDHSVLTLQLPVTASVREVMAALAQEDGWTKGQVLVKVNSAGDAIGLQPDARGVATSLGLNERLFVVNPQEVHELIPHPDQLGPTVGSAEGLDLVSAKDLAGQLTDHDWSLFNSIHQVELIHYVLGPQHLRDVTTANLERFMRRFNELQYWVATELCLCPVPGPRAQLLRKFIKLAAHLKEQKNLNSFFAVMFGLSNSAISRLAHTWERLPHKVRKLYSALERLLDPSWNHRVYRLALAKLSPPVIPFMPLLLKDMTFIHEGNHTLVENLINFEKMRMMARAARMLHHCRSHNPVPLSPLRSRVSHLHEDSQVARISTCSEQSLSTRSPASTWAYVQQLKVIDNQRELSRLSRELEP
Chain of UniProt P10828 (P10828 whole entry, looked up): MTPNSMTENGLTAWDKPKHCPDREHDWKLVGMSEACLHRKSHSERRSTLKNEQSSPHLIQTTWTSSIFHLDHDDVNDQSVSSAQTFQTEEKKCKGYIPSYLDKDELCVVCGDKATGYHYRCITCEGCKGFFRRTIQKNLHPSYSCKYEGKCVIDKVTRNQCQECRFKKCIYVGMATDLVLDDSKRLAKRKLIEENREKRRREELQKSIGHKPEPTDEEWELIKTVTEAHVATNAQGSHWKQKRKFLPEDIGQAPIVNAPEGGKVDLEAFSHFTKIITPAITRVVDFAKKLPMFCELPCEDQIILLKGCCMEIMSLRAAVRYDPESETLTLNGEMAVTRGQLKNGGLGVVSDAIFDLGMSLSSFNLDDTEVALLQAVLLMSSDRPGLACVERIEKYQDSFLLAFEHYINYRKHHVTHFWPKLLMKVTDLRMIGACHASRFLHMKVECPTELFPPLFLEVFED
Chain of UniProt O15297 (O15297 whole entry, looked up): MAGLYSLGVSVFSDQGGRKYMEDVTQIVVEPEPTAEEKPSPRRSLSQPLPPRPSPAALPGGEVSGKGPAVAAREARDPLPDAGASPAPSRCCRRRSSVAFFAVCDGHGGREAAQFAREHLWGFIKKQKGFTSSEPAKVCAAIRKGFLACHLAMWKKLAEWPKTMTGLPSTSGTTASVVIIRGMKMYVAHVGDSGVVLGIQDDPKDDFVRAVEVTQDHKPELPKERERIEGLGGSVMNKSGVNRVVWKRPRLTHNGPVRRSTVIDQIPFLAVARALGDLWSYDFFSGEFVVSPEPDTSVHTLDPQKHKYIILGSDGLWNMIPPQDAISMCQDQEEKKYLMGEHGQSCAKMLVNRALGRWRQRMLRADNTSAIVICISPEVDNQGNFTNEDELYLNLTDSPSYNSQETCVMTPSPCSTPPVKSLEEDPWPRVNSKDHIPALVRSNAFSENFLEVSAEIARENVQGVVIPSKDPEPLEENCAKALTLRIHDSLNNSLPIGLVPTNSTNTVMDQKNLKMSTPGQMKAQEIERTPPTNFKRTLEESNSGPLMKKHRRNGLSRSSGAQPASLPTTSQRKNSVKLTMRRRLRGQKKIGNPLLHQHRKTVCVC
Chain of UniProt Q03181 (Q03181 whole entry, looked up): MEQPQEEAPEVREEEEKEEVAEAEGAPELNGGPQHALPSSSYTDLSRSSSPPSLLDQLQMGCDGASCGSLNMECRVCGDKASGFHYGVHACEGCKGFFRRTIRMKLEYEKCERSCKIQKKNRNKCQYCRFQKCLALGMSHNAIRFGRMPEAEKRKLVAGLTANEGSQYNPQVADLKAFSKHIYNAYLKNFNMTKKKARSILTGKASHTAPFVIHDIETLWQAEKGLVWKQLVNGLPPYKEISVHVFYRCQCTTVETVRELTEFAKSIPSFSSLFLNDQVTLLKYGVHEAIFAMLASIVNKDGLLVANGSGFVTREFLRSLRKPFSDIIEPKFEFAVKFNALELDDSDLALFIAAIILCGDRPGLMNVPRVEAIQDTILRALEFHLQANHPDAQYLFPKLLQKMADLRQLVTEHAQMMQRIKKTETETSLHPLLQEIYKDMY
Chain of UniProt P11712 (P11712 whole entry, looked up): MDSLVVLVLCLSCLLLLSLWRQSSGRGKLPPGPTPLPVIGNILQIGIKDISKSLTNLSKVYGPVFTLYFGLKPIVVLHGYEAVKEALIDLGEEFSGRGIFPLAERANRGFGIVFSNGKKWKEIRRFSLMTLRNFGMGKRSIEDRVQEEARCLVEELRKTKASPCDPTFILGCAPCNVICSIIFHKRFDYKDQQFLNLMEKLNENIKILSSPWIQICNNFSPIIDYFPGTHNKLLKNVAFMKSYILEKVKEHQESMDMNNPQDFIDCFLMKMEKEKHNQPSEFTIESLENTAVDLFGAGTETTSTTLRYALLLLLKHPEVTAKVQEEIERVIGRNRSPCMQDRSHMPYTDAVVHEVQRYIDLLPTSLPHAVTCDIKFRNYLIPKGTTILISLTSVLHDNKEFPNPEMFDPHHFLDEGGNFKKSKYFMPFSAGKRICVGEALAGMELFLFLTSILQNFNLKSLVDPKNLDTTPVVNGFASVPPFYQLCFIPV
Chain of UniProt P19793 (P19793 whole entry, looked up): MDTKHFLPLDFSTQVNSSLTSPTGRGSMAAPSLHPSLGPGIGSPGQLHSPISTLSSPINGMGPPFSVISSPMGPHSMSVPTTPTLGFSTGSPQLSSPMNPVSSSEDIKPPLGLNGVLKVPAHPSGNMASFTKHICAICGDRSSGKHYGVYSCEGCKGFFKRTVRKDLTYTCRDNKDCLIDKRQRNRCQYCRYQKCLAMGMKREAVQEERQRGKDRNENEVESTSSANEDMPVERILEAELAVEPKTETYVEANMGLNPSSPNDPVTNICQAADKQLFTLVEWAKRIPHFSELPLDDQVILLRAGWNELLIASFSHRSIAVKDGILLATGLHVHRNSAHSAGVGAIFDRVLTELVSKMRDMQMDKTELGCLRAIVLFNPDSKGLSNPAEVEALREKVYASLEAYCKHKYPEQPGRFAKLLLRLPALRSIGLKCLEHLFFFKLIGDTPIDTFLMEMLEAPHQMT

## N[C@@H](Cn1ccc(=O)c(O)c1)C(=O)O
[1]
  Potency: inactive
[2]
  Potency: inconclusive [side channel, falling, partial curve]
[3]
  Potency: inactive
[4]
  Potency: active: 0.0585 µM

## CC[C@H]1CN2CCc3cc(OC)c(OC)cc3[C@@H]2C[C@@H]1C[C@H]1NCCc2cc(OC)c(OC)cc21
[5]
  activity change, negative = inhibition: active: -119%
[6]
  Potency: active: 0.282 µM

## C[N+](C)(C)CCCCCCCCCC[N+](C)(C)C
[7]
  activity change, negative = inhibition: inconclusive: -2.73% [phenotype inactive]

## NS(=O)(=O)c1ccc(C(=O)O)cc1
[8]
  activity change, negative = inhibition: inactive: -3.12% [at 11.4 µM]
[9]
  Potency: inconclusive [cytotoxic, full curve, poor fit]

## CC(=O)OC12CC(C)C(OC(=O)c3ccccc3)C1/C=C(/C)C(OC(=O)c1ccccc1)CC(=O)C(C)(C)/C=C/C(C)C2=O (centres undefined)
[10]
  Potency: inconclusive [inhibitor, partial curve]

## C#C[C@]1(OC(C)=O)CC[C@H]2[C@@H]3CCC4=C[C@@H](OC(C)=O)CC[C@@H]4[C@H]3CC[C@@]21C
[11]
  Potency: inactive

## O=C1NC(=O)C(c2ccccc2)(c2ccccc2)N1
[12]
  Potency: inactive
[7]
  activity change, negative = inhibition: inconclusive: -14.5% [phenotype inactive]
[13]
  Potency: inactive
[14]
  activity, negative = inhibition: inconclusive: 5.2% and inconclusive: 5.18%
[15]
  Potency: inconclusive [side channel, falling, partial curve, poor fit]
[16]
  activation: inconclusive: -11%

## Nc1ccc(S(=O)(=O)Nc2nccs2)cc1
[17]
  activity change, negative = cytotoxicity: inconclusive: -55.3%
[8]
  Potency: inactive
[13]
  Potency: inconclusive [cytotoxic, single point]
[18]
  activity change, negative = inhibition: inconclusive: 17.8%
[14]
  activity, negative = inhibition: inconclusive: 10%
[19]
  max response: inactive: 19.3%
[16]
  Potency: inconclusive [inhibitor, partial curve]

## NC(=O)c1ncn([C@@H]2O[C@H](CO)[C@@H](O)[C@H]2O)n1
[17]
  Potency: active: 25.1 µM
[12]
  Potency: inconclusive [falling, partial curve]
[18]
  activity change, negative = inhibition: inconclusive: -30.2%
[15]
  activation: inconclusive: -41.5%
[19]
  max response: inconclusive: -44.5%

## O=C(OCCOCCO)c1ccccc1Nc1cccc(C(F)(F)F)c1
[20]
  Potency: inactive

## O=c1[nH]c2cc(C(F)(F)F)c(N3CCOCC3)cc2n(CP(=O)(O)O)c1=O
[9]
  Potency: inactive

## Cc1cc(C)c2nc(-c3ccccn3)cc(C(=O)Nc3ccc(S(=O)(=O)Nc4onc(C)c4C)cc3)c2c1
[10]
  Potency: inconclusive [inhibitor, partial curve]
[11]
  Potency: inconclusive [inhibitor, partial curve]

## Cc1ccc2c(c1)c1c3n2CCNC3CCC1 (centres undefined)
[20]
  Potency: inactive
